Data reported in patent US12577196B2 (priority 2019, dated 2026).

How the values were obtained:
Assay in all cases: microbe, parasite or virus in culture
[1] = tested on: Saccharomyces cerevisiae ATCC-9763 Fluconazole resistant (20 G); conditions: ATCC9763
[2] = tested on: Candida albicans ATCC-10231 Fluconazole resistant (20 G); conditions: ATCC10231
[3] = tested on: Candida albicans ATCC-10231 Voriconazole resistant (20 G); conditions: ATCC10231

Cc1ccc(C(C)C)cc1OC(=O)C[N+](C)(C)CCCCCCCCCC[N+](C)(C)CC(=O)Oc1cc(C(C)C)ccc1C [Formula IV, N1,N10-bis(2-(5-isopropyl-2-methylphenoxy)−2-oxoethyl)-N1,N1,N10,N10-tetramethyldecane-1,10-diaminium dichloride]
MIC [1]: 0.98 mg/L

Cc1ccc(C(C)C)c(OC(=O)C[N+](C)(C)CCCCCCCCCC[N+](C)(C)CC(=O)Oc2cc(C)ccc2C(C)C)c1 [Formula V, N1,N10-bis(2-(2-isopropyl-5-methylphenoxy)−2-oxoethyl)-N1,N1,N10,N10-tetramethyldecane-1,10-diaminium dichloride]
MIC [2]: 7.8 mg/L | MIC [3]: 3.9 mg/L
